Entries with a single value are a further part of the results.
System: SK-HEP-1 cells
Assay: Protection of endothelial cells from homocysteine-induced cell death (MTS assay, absorbance at 490 nm; includes comparison of NACCbl, NAC, cyanocobalamin+NAC, free thiols, other cobalamins, folate)
Type: cell-based, Human
Conditions: NACCbl 30 μM, NAC 75 μM
Method: The effect of a constant concentration of NACCbl and GSCbl to protect cells against variable concentrations of homocysteine was assessed. […] Cell viability was determined by MTS® assay. Data shown in FIG. 4 are representative of means ±SE of 6 independent samples. FIG. 4 illustrates that NACCbl (▪) and GSCbl (▴) protect endothelial cells from the effect of homocysteine. […] Cell viability was determined by MTS® assay. […] There was a decrease in protection as homocysteine concentration increased, but there was still ˜60% survival at 50 μM homocysteine.
The data was normalized (log 2 and log 10) as shown in FIGS. 16 and 17 and Tables 16 and 17, respectively, below.

Structure (SMILES): CC(=O)NC(C[S-])C(=O)O.CC1=C2N=C(C=C3N=C(C(C)=C4[N-]C(C(CC(N)=O)C4(C)CCC(=O)NCC(C)OP(=O)([O-])OC4C(CO)OC(n5cnc6cc(C)c(C)cc65)C4O)C4(C)N=C1C(CCC(N)=O)C4(C)CC(N)=O)C(CCC(N)=O)C3(C)C)C(CCC(N)=O)C2(C)CC(N)=O.[Co+3] [NACCbl, N-acetyl-L-cysteinylcobalamin]
- normalized cell viability (MTS), percent, mean of 6 (Conc. Hcy 0.000, Normalized data, Log 2): 94.824
- normalized cell viability (MTS), percent, mean of 6 (Conc. Hcy 0.000, Normalized data, Log 10): 100.000
- normalized cell viability (MTS), percent, mean of 6 (Conc. Hcy 1.780, normalized data log 2): 91.341
- normalized cell viability (MTS), percent, mean of 6 (Conc. Hcy 1.780, normalized data log 10): 96.489
- normalized cell viability (MTS), percent, mean of 6 (Conc. Hcy 3.125, normalized data log 2): 80.699
- normalized cell viability (MTS), percent, mean of 6 (Conc. Hcy 3.125, normalized data log 10): 85.763
- normalized cell viability (MTS), percent, mean of 6 (Conc. Hcy 6.250, normalized data log 2): 75.524
- normalized cell viability (MTS), percent, mean of 6 (Conc. Hcy 6.250, normalized data log 10): 80.546
- normalized cell viability (MTS), percent, mean of 6 (Conc. Hcy 12.500, normalized data log 2): 70.387
- normalized cell viability (MTS), percent, mean of 6 (Conc. Hcy 12.500, normalized data log 10): 75.368
- normalized cell viability (MTS), percent, mean of 6 (Conc. Hcy 25.000, normalized data log 2): 62.926
- normalized cell viability (MTS), percent, mean of 6 (Conc. Hcy 25.000, normalized data log 10): 67.848
- normalized cell viability (MTS), percent, mean of 6 (Conc. Hcy 50.000, normalized data log 2): 56.302
- normalized cell viability (MTS), percent, mean of 6 (Conc. Hcy 50.000, normalized data log 10): 61.171
- normalized cell viability (MTS), percent, mean of 6 (Conc. Hcy 100.000, normalized data log 2): 52.298
- normalized cell viability (MTS), percent, mean of 6 (Conc. Hcy 100.000, normalized data log 10): 57.135
- normalized cell viability (MTS), percent, mean of 6 (Conc. Hcy 200.000, normalized data log 2): 40.781
- normalized cell viability (MTS), percent, mean of 6 (Conc. Hcy 200.000, normalized data log 10): 45.526

Reference: patent publication US7812042B2, “Pharmaceutical compositions and therapeutic applications for the use of a novel vitamin B12 derivative, N-acetyl-L-cysteinylcobalamin” (priority 2006, dated 2010)
